Results published in the antibiotic and cytotoxicity screens of Wong et al. (2023).
The list shows a part of the results.

Legend:
HSkMC = human skeletal muscle cells; assay: cytotoxicity call (relative viability < 0.9); conditions: 10 µM
HepG2 = assay: cytotoxicity call (relative viability < 0.9); conditions: 10 µM
S. aureus RN4220 = assay: growth inhibition call (relative growth <= 0.2); conditions: 50 µM

CC(/C=C/C(=O)NO)=C\c1ccccc1OCc1cn(CC(=O)N2CCN(c3ccccc3)CC2)nn1
cytotoxicity call (HSkMC): inactive
cytotoxicity call (HepG2): inactive
growth inhibition call (S. aureus RN4220): inactive

C[C@H](CO)N1C[C@H](C)[C@@H](CN(C)S(C)(=O)=O)Oc2cc(-c3cccc(F)c3)ccc2S1(=O)=O
cytotoxicity call (HSkMC): inactive
cytotoxicity call (HepG2): inactive
growth inhibition call (S. aureus RN4220): inactive

C[C@@H]1CN([C@@H](C)CO)C(=O)c2cccc(NC(=O)c3nc4ccccc4s3)c2O[C@H]1CN(C)C(=O)Nc1ccc(C(F)(F)F)cc1
cytotoxicity call (HSkMC): inactive
cytotoxicity call (HepG2): active
growth inhibition call (S. aureus RN4220): inactive

Cc1ccnc(NC(=O)c2cc3sc4ccccc4c3s2)c1
cytotoxicity call (HSkMC): inactive
cytotoxicity call (HepG2): inactive
growth inhibition call (S. aureus RN4220): inactive

C[C@@H]1CN([C@H](C)CO)C(=O)CCCn2cc(nn2)CO[C@@H]1CN(C)S(=O)(=O)c1ccc(-n2cccn2)cc1
cytotoxicity call (HSkMC): inactive
cytotoxicity call (HepG2): inactive
growth inhibition call (S. aureus RN4220): inactive

C[C@@H]1CCCCO[C@H](CN(C)C(=O)Nc2ccc(C(F)(F)F)cc2)[C@H](C)CN([C@H](C)CO)C(=O)c2cc(NS(=O)(=O)c3ccccc3)ccc2O1
cytotoxicity call (HSkMC): inactive
cytotoxicity call (HepG2): active
growth inhibition call (S. aureus RN4220): inactive

CN(Cc1[nH]nc2c1CCCC2)C(=O)Cc1n[nH]c(=O)[nH]1
cytotoxicity call (HSkMC): inactive
cytotoxicity call (HepG2): inactive
growth inhibition call (S. aureus RN4220): inactive

COc1ccc(S(=O)(=O)Nc2cccc3c2O[C@H](CN(C)Cc2ccc(Cl)c(Cl)c2)[C@@H](C)CN([C@@H](C)CO)C3=O)cc1
cytotoxicity call (HSkMC): inactive
cytotoxicity call (HepG2): inactive
growth inhibition call (S. aureus RN4220): inactive

COc1ccc(CNC(=O)C[C@@H]2CC[C@H]3[C@@H](COC[C@H](O)CN3S(=O)(=O)c3ccc(C)cc3)O2)cc1OC
cytotoxicity call (HSkMC): inactive
cytotoxicity call (HepG2): inactive
growth inhibition call (S. aureus RN4220): inactive

NC[C@H](c1ccco1)N1CCN(c2ccc(F)cc2)CC1
cytotoxicity call (HSkMC): inactive
cytotoxicity call (HepG2): inactive
growth inhibition call (S. aureus RN4220): inactive

C[C@H]1CN([C@@H](C)CO)C(=O)Cc2cc(NC(=O)Cn3cnnn3)ccc2O[C@@H]1CN(C)C(=O)Nc1ccccc1
cytotoxicity call (HSkMC): inactive
cytotoxicity call (HepG2): inactive
growth inhibition call (S. aureus RN4220): inactive

NC(=O)c1c(N)c(C(N)=S)n2c1CCC2
cytotoxicity call (HSkMC): inactive
cytotoxicity call (HepG2): inactive
growth inhibition call (S. aureus RN4220): inactive

COC(=O)CN[C@H]1CCS(=O)(=O)C1
cytotoxicity call (HSkMC): inactive
cytotoxicity call (HepG2): inactive
growth inhibition call (S. aureus RN4220): inactive

Cc1noc(C)c1S(=O)(=O)Nc1ccc2c(c1)CC(=O)N([C@@H](C)CO)C[C@H](C)[C@H](CN(C)S(C)(=O)=O)O2
cytotoxicity call (HSkMC): inactive
cytotoxicity call (HepG2): inactive
growth inhibition call (S. aureus RN4220): inactive

CC(C)NC(=O)Nc1ccc2c(c1)C(=O)N([C@@H](C)CO)C[C@@H](C)[C@H](CN(C)Cc1ccccc1)OCCCC[C@H](C)O2
cytotoxicity call (HSkMC): inactive
cytotoxicity call (HepG2): inactive
growth inhibition call (S. aureus RN4220): inactive

O=C(C[C@@H]1C[C@H]2c3cc(NC(=O)Nc4ccc(C(F)(F)F)cc4)ccc3O[C@H]2[C@@H](CO)O1)NCCc1ccccc1
cytotoxicity call (HSkMC): inactive
cytotoxicity call (HepG2): inactive
growth inhibition call (S. aureus RN4220): inactive

C[C@H](CO)N1C[C@H](C)[C@H](CN(C)Cc2ccc(-c3ccccc3)cc2)Oc2ccc(NC(=O)Nc3ccc(C(F)(F)F)cc3)cc2C1=O
cytotoxicity call (HSkMC): active
cytotoxicity call (HepG2): active
growth inhibition call (S. aureus RN4220): inactive

COc1ccc(S(=O)(=O)Nc2ccc3c(c2)C(=O)N([C@@H](C)CO)C[C@H](C)[C@@H](CN(C)S(=O)(=O)c2ccccc2)O3)cc1
cytotoxicity call (HSkMC): inactive
cytotoxicity call (HepG2): inactive
growth inhibition call (S. aureus RN4220): inactive

Cc1noc(C)c1S(=O)(=O)Nc1ccc2c(c1)C(=O)N([C@@H](C)CO)C[C@@H](C)[C@H](CN(C)CC1CCCCC1)OCCCC[C@@H](C)O2
cytotoxicity call (HSkMC): inactive
cytotoxicity call (HepG2): inactive
growth inhibition call (S. aureus RN4220): inactive

CC1C(=O)OC2C1CCC1(C)CCC(=O)C(C)C21 (configuration not stated)
cytotoxicity call (HSkMC): inactive
cytotoxicity call (HepG2): inactive
growth inhibition call (S. aureus RN4220): inactive

C[C@H](CO)N1C[C@H](C)[C@@H](CN(C)C(=O)Nc2ccccc2)OCCCC[C@H](C)Oc2ccc(NC(=O)Nc3ccc(C(F)(F)F)cc3)cc2C1=O
cytotoxicity call (HSkMC): inactive
cytotoxicity call (HepG2): inactive
growth inhibition call (S. aureus RN4220): inactive

CNC(=O)N1C[C@H]2C[C@@H]3[C@@](C1)(CN(C)S3(=O)=O)O2
cytotoxicity call (HSkMC): inactive
cytotoxicity call (HepG2): inactive
growth inhibition call (S. aureus RN4220): inactive

C[C@H](O)C#Cc1ccc2c(c1)O[C@@H](CN(C)C(=O)CN(C)C)[C@@H](C)CN([C@@H](C)CO)S2(=O)=O
cytotoxicity call (HSkMC): inactive
cytotoxicity call (HepG2): inactive
growth inhibition call (S. aureus RN4220): inactive

Cc1cc2nc3c(=O)[nH]c(=O)nc-3n(CC(O)C(O)C(O)COP(=O)([O-])O)c2cc1C.[Na+] (configuration not stated)
cytotoxicity call (HSkMC): inactive
cytotoxicity call (HepG2): active
growth inhibition call (S. aureus RN4220): inactive

C[C@H](CO)N1C[C@H](C)[C@H](CN(C)CC2CC2)OCCCC[C@H](C)Oc2ccc(NC(=O)Nc3ccc(C(F)(F)F)cc3)cc2C1=O
cytotoxicity call (HSkMC): inactive
cytotoxicity call (HepG2): active
growth inhibition call (S. aureus RN4220): inactive

O=C(C[C@H]1C=C[C@@H](NC(=O)Nc2cc(F)ccc2F)[C@@H](CO)O1)NCCCN1CCOCC1
cytotoxicity call (HSkMC): inactive
cytotoxicity call (HepG2): inactive
growth inhibition call (S. aureus RN4220): inactive

C[C@H]1CN([C@@H](C)CO)C(=O)c2cccc(NC(=O)Nc3ccccc3)c2O[C@H]1CN(C)CC1CCCCC1
cytotoxicity call (HSkMC): inactive
cytotoxicity call (HepG2): inactive
growth inhibition call (S. aureus RN4220): inactive

O=C(CN1CCOCC1)NCC[C@@H]1CC[C@@H](NC(=O)c2ccc3c(c2)OCO3)[C@H](CO)O1
cytotoxicity call (HSkMC): inactive
cytotoxicity call (HepG2): inactive
growth inhibition call (S. aureus RN4220): inactive

C=CCOC(=O)[C@@H]1[C@H]2C(=O)O[C@H](c3ccccc3)[C@H](c3ccccc3)N2[C@H](c2ccc(OCCOC(=O)[C@H]3C[C@H]4C(=O)N[C@@H](CCCCN(C)C)C(=O)N4[C@H]3c3cccc(OCCO)c3)cc2)[C@@]12C(=O)Nc1ccc(I)cc12
cytotoxicity call (HSkMC): inactive
cytotoxicity call (HepG2): inactive
growth inhibition call (S. aureus RN4220): inactive

C[C@@H]1CN([C@@H](C)CO)C(=O)c2cc(NS(C)(=O)=O)ccc2O[C@@H](C)CCCCO[C@@H]1CN(C)Cc1ccc(C(F)(F)F)cc1
cytotoxicity call (HSkMC): inactive
cytotoxicity call (HepG2): inactive
growth inhibition call (S. aureus RN4220): inactive

C[C@@H]1CCCCO[C@H](CN(C)C(=O)Cc2ccccc2)[C@H](C)CN([C@H](C)CO)C(=O)c2cc(NC(=O)CCC(F)(F)F)ccc2O1
cytotoxicity call (HSkMC): inactive
cytotoxicity call (HepG2): inactive
growth inhibition call (S. aureus RN4220): inactive

C[C@@H]1CCCCO[C@@H](CN(C)C(=O)Nc2ccc(C(F)(F)F)cc2)[C@H](C)CN([C@@H](C)CO)C(=O)c2cc(NC(=O)Cc3ccccc3)ccc2O1
cytotoxicity call (HSkMC): inactive
cytotoxicity call (HepG2): inactive
growth inhibition call (S. aureus RN4220): inactive

Cc1noc(C)c1NC(=O)Nc1ccc2c(c1)C(=O)N([C@@H](C)CO)C[C@H](C)[C@H](CN(C)S(=O)(=O)c1ccccc1)OCCCC[C@@H](C)O2
cytotoxicity call (HSkMC): inactive
cytotoxicity call (HepG2): inactive
growth inhibition call (S. aureus RN4220): inactive

CCCCCCCCNC[C@@H](O)[C@H](O)[C@@H](O)[C@@H](O)CO
cytotoxicity call (HSkMC): inactive
cytotoxicity call (HepG2): inactive
growth inhibition call (S. aureus RN4220): inactive

Cc1ncc(C[n+]2csc(CCO)c2C)c(N)n1.Cl.[Cl-]
cytotoxicity call (HSkMC): inactive
cytotoxicity call (HepG2): inactive
growth inhibition call (S. aureus RN4220): inactive

CCCC[C@H](NC(C)=O)C(=O)N[C@@H](CCC(N)=O)C(=O)N[C@@H](Cc1c[nH]cn1)C(=O)N[C@H](Cc1ccccc1)C(=O)N[C@@H](CCCNC(=N)N)C(=O)N[C@H](Cc1c[nH]c2ccccc12)C(=O)NCC(N)=O
cytotoxicity call (HSkMC): inactive
cytotoxicity call (HepG2): inactive
growth inhibition call (S. aureus RN4220): inactive

C[C@H](CO)N1C[C@H](C)[C@@H](CN(C)Cc2ccc(Cl)c(Cl)c2)Oc2c(NC(=O)NC3CCCCC3)cccc2C1=O
cytotoxicity call (HSkMC): inactive
cytotoxicity call (HepG2): inactive
growth inhibition call (S. aureus RN4220): inactive

C[C@@H]1CCCCO[C@H](CN(C)S(=O)(=O)c2ccccc2)[C@@H](C)CN([C@H](C)CO)C(=O)c2cc(NS(C)(=O)=O)ccc2O1
cytotoxicity call (HSkMC): inactive
cytotoxicity call (HepG2): inactive
growth inhibition call (S. aureus RN4220): inactive

COc1ccc(NC(=O)N(C)C[C@@H]2Oc3ncc(C#C[C@@H](C)O)cc3C(=O)N([C@H](C)CO)C[C@@H]2C)cc1
cytotoxicity call (HSkMC): inactive
cytotoxicity call (HepG2): inactive
growth inhibition call (S. aureus RN4220): inactive

C[C@H](CO)N1C[C@H](C)[C@H](CN(C)S(=O)(=O)c2cn(C)cn2)Oc2ccc(NC(=O)CCCN(C)C)cc2C1=O
cytotoxicity call (HSkMC): inactive
cytotoxicity call (HepG2): inactive
growth inhibition call (S. aureus RN4220): inactive

C[C@@H]1CN([C@@H](C)CO)C(=O)Cc2cc(NS(=O)(=O)c3cccs3)ccc2O[C@@H]1CN(C)Cc1ccncc1
cytotoxicity call (HSkMC): inactive
cytotoxicity call (HepG2): inactive
growth inhibition call (S. aureus RN4220): inactive

C[C@H](CO)N1C[C@H](C)[C@H](CN(C)C(=O)c2ccccc2)OCCCC[C@H](C)Oc2ccc(NS(=O)(=O)c3cccs3)cc2C1=O
cytotoxicity call (HSkMC): inactive
cytotoxicity call (HepG2): inactive
growth inhibition call (S. aureus RN4220): inactive

C[C@@H]1CN([C@@H](C)CO)C(=O)c2cc(NC(=O)Nc3ccccc3)ccc2O[C@H]1CN(C)S(=O)(=O)c1cn(C)cn1
cytotoxicity call (HSkMC): inactive
cytotoxicity call (HepG2): inactive
growth inhibition call (S. aureus RN4220): inactive

CC(=O)OCC(=O)C12N=C(C)OC1CC1C3CCC4=CC(=O)C=CC4(C)C3C(O)CC12C (configuration not stated)
cytotoxicity call (HSkMC): inactive
cytotoxicity call (HepG2): inactive
growth inhibition call (S. aureus RN4220): inactive

CO[C@H]1CN(C)C(=O)c2ccc(NC(C)=O)cc2OC[C@@H](C)N(S(=O)(=O)c2cn(C)cn2)C[C@@H]1C
cytotoxicity call (HSkMC): inactive
cytotoxicity call (HepG2): inactive
growth inhibition call (S. aureus RN4220): inactive

C[C@@H]1CN([C@H](C)CO)C(=O)c2cc(NC(=O)Nc3ccccc3)ccc2O[C@@H](C)CCCCO[C@H]1CN(C)C(=O)c1ccccc1
cytotoxicity call (HSkMC): inactive
cytotoxicity call (HepG2): inactive
growth inhibition call (S. aureus RN4220): inactive

COc1ccc(S(=O)(=O)Nc2cccc3c2O[C@H](CN(C)S(=O)(=O)c2ccccc2)[C@H](C)CN([C@@H](C)CO)C3=O)cc1
cytotoxicity call (HSkMC): inactive
cytotoxicity call (HepG2): inactive
growth inhibition call (S. aureus RN4220): inactive

COc1ccc(CN(C)C[C@H]2OCCCC[C@H](C)Oc3ccc(NC(=O)Nc4ccc(OC)cc4)cc3C(=O)N([C@@H](C)CO)C[C@H]2C)cc1
cytotoxicity call (HSkMC): inactive
cytotoxicity call (HepG2): active
growth inhibition call (S. aureus RN4220): inactive

Cc1ccc(S(=O)(=O)Nc2ccc3c(c2)C(=O)N([C@H](C)CO)C[C@H](C)[C@H](CN(C)S(=O)(=O)c2ccc(Cl)cc2)OCCCC[C@@H](C)O3)cc1
cytotoxicity call (HSkMC): inactive
cytotoxicity call (HepG2): inactive
growth inhibition call (S. aureus RN4220): inactive

CC(O)C1C(=O)N2C(C(=O)[O-])=C(SC3Cn4cnc[n+]4C3)C(C)C12 (configuration not stated)
cytotoxicity call (HSkMC): inactive
cytotoxicity call (HepG2): inactive
growth inhibition call (S. aureus RN4220): inactive

Cc1cnccc1CN1C[C@H](C(=O)O)CC1=O
cytotoxicity call (HSkMC): inactive
cytotoxicity call (HepG2): inactive
growth inhibition call (S. aureus RN4220): inactive

Cc1ccc(S(=O)(=O)N[C@@H]2CC[C@@H](CC(=O)N3CCC(Cc4ccccc4)CC3)O[C@H]2CO)cc1
cytotoxicity call (HSkMC): inactive
cytotoxicity call (HepG2): inactive
growth inhibition call (S. aureus RN4220): inactive

CC(C)N(CCCNC(=O)Nc1ccc(C(C)(C)C)cc1)C[C@H]1O[C@@H](n2cnc3c(N)ncnc32)[C@@H](O)[C@H]1O
cytotoxicity call (HSkMC): inactive
cytotoxicity call (HepG2): inactive
growth inhibition call (S. aureus RN4220): inactive

Cc1ccc(S(=O)(=O)N(C)C[C@@H]2OCCCC[C@H](C)Oc3ccc(NS(=O)(=O)c4ccc(Cl)cc4)cc3C(=O)N([C@@H](C)CO)C[C@@H]2C)cc1
cytotoxicity call (HSkMC): inactive
cytotoxicity call (HepG2): active
growth inhibition call (S. aureus RN4220): inactive
